{"sequences": {"note": "Chains of the proteins cited; added tags and fusions are not shown. Lines headed by an entry give the natural chain unless they say otherwise; changes in a name come on top. A line that says so, or that is headed by a name, gives the form on record, which may keep a tag or linker. Residues count along the entry.", "UniProt P68331": "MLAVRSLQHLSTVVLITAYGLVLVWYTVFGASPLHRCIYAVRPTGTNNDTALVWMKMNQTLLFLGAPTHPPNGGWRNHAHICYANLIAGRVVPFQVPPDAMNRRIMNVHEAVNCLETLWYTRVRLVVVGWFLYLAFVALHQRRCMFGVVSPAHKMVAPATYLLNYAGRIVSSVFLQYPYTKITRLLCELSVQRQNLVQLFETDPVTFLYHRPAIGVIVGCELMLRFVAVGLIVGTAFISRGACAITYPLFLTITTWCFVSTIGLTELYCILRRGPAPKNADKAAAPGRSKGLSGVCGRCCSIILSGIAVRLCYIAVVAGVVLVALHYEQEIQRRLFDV", "full-length HSV-1 glycoprotein K with in-frame Flag tag": "residues 31-338 of P68331", "Flag-gK1.1 (gK aa 31–115, without the signal sequence)": "residues 31-115 of P68331", "Flag-gK2 (gK aa 116–230)": "residues 116-230 of P68331", "Flag-gK3 (gK aa 231–338)": "residues 231-338 of P68331"}, "source": "paper PMC8370620", "binders": {"B1": {"name": "signal peptide peptidase (SPP), full-length, with in-frame HA tag and ER retention signal (enzyme, UniProt Q8TCT9 1-377)", "chain": "MDSALSDPHNGSAEAGGPTNSTTRPPSTPEGIALAYGSLLLMALLPIFFGALRSVRCARGKNASDMPETITSRDAARFPIIASCTLLGLYLFFKIFSQEYINLLLSMYFFVLGILALSHTISPFMNKFFPASFPNRQYQLLFTQGSGENKEEIINYEFDTKDLVCLGLSSIVGVWYLLRKHWIANNLFGLAFSLNGVELLHLNNVSTGCILLGGLFIYDVFWVFGTNVMVTVAKSFEAPIKLVFPQDLLEKGLEANNFAMLGLGDVVIPGIFIALLLRFDISLKKNTHTYFYTSFAAYIFGLGLTIFIMHIFKHAQPALLYLVPACIGFPVLVALAKGEVTEMFSYEESNPKDPAAVTESKEGTEASASKGLEKKEK"}}, "key": {"[1]": {"target": "Flag-gK1.1 (gK aa 31–115, without the signal sequence) (HSV-1) (UniProt P68331)", "experiment": "co-IP; HeLa cells co-transfected with HA-SPP and Flag-tagged gK construct (1:1), 48 hr; lysate (25 mM Tris pH 7.2, 150 mM NaCl, 5% glycerol, 1 mM EDTA, 1% NP-40); IP with anti-Flag antibody at 4°C, western blot with anti-HA"}, "[2]": {"target": "Flag-gK3 (gK aa 231–338) (HSV-1) (UniProt P68331)", "experiment": "co-IP; HeLa cells co-transfected with HA-SPP and Flag-tagged gK construct (1:1), 48 hr; lysate (25 mM Tris pH 7.2, 150 mM NaCl, 5% glycerol, 1 mM EDTA, 1% NP-40); IP with anti-Flag antibody at 4°C, western blot with anti-HA"}, "[3]": {"target": "Flag-gK2 (gK aa 116–230) (HSV-1) (UniProt P68331)", "experiment": "co-IP; HeLa cells co-transfected with HA-SPP and Flag-tagged gK construct (1:1), 48 hr; lysate (25 mM Tris pH 7.2, 150 mM NaCl, 5% glycerol, 1 mM EDTA, 1% NP-40); IP with anti-Flag antibody at 4°C, western blot with anti-HA"}, "[4]": {"target": "Flag-gK1 (gK aa 1–115) (HSV-1) (UniProt P68331)", "experiment": "co-IP; HeLa cells co-transfected with HA-SPP and Flag-tagged gK construct (1:1), 48 hr; lysate (25 mM Tris pH 7.2, 150 mM NaCl, 5% glycerol, 1 mM EDTA, 1% NP-40); IP with anti-Flag antibody at 4°C, western blot with anti-HA"}, "[5]": {"target": "Flag-gK1.1 (gK aa 31–115, without the signal sequence) (HSV-1) (UniProt P68331)", "experiment": "co-IP; lysate of cells co-transfected with HA-SPP and Flag-gK or Flag-gK1.1, 48 hr, IP with anti-Flag in the presence of 5 μg/ml of the indicated gK peptide, 4°C, blot anti-HA"}, "[6]": {"target": "full-length HSV-1 glycoprotein K with in-frame Flag tag (HSV-1) (UniProt P68331)", "experiment": "co-IP; lysate of cells co-transfected with HA-SPP and Flag-gK or Flag-gK1.1, 48 hr, IP with anti-Flag in the presence of 5 μg/ml of the indicated gK peptide, 4°C, blot anti-HA"}}, "note": "Results are given in words; binding and its absence hold for the method and conditions named. In cells and extracts the contact can be indirect. Some binding calls cover weakened binding; strength is not graded here. Sequences can lack the tags named with a protein."}
{"binder": "B1", "values": [{"measurement": "binding", "setting": "[1]", "result": "binds"}, {"measurement": "binding", "setting": "[2]", "result": "no binding"}, {"measurement": "binding", "setting": "[3]", "result": "no binding"}, {"measurement": "binding", "setting": "[4]", "result": "binds"}, {"measurement": "binding", "setting": "[5]", "result": "binds"}, {"measurement": "binding", "setting": "[6]", "result": "binds"}]}
